# Results as given in PubChem BioAssay AID1159614 (National Center for Advancing Translational Sciences (NCATS), 2016).
# Out of some 45,000 compounds screened, about 65 (0.1%) were called active. The call rests on the fitted dose curve; in most records, active means well fitted activation curve with a large enough effect; inconclusive means small, poorly fitted or top-dose-only effect; inactive means no such curve, though single readings can be large or run the other way. Some of the results follow.
# Molecular target: Galactocerebrosidase (Homo sapiens) (UniProt P54803)
# Experiment: A Novel Cell-Based Assay to Identify Small Molecules for B -Galactocerebrosidase; further: 0% is about no effect; nearly all actives have a fitted effect of over 65% in size
# Conditions: 145M-Twi-hGALC-G270D cells (Twitcher mouse brain line with human GALC G270D), HMU-beta-Gal fluorescence, 48 h; series mostly up to 57.5 µM; activation: at the top concentration
# Outline: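 Fluorescence readout: HMU-β-gal cleavage by mutant GALC (0.1 mM final, citrate/phosphate pH 5.2 with 1 mg/mL taurocholate), stopped with carbonate/bicarbonate plus Triton X-100. Cells: murine Twitcher 145M-Twi expressing human G270D GALC; qHTS for activators.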
# Sequence of UniProt P54803 (P54803 whole entry, looked up): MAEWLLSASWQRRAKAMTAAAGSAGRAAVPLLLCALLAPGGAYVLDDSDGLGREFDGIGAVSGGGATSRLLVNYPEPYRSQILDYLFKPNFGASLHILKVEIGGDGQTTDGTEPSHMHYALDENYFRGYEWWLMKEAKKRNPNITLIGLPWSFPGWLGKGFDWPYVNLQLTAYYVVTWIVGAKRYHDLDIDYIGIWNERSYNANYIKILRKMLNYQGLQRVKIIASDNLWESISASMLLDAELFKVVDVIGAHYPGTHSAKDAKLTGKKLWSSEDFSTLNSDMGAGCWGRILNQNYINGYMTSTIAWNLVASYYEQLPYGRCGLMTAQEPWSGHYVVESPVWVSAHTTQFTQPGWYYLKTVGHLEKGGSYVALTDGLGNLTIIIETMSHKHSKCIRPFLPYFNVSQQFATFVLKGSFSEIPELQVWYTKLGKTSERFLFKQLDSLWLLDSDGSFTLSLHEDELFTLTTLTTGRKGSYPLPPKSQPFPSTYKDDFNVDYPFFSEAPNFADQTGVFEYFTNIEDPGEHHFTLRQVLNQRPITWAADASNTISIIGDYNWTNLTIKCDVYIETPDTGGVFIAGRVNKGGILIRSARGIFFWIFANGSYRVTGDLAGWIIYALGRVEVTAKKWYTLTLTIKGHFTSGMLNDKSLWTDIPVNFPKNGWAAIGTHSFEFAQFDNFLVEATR
row,Structure (SMILES),activation
1,Cc1ccc(Cl)cc1NC(=O)Cn1c(=O)n(Cc2ccccc2)c(=O)c2oc3ccccc3c21,inactive: -9.03%
2,CCn1cc2c(n1)-c1c(oc(C(=O)Nc3cccc(C)c3C)c1C)CC2,inactive: -8.52%
3,Cc1ccc(CCNC(=O)CCCn2c(=O)c3ccccc3n(Cc3ccccc3C#N)c2=O)cc1,inactive: -7.16%
4,Cc1ccc(OCC(=O)Nc2cccc(OCc3cc(=O)n4cccc(C)c4n3)c2)cc1C,inactive: 8.14%
5,Cc1ccc(CNC(=O)CCc2c(C)nc3nc(C)nn3c2C)cc1,inactive: 5.1%
6,CCOc1ccc(-c2cc(C(=O)NCc3ccccc3Cl)c3ccccc3n2)cc1,inactive: 10.4%
7,O=C1Cc2cc(CCN3CCN(c4nsc5ccccc45)CC3)c(Cl)cc2N1,inactive: -8.75%
8,Cc1cc(C)cc(NS(=O)(=O)c2ccc3[nH]cc(C(=O)NC4CCCCC4)c(=O)c3c2)c1,inactive: -13.9%
9,CCn1cc(S(=O)(=O)c2ccccc2)c(=O)c2cc(F)c(N3CCCC3)cc21,inactive: -19.5%
10,Cc1cc2nc(-c3cccc(NC(=O)C(C)C)c3C)oc2cc1C,inactive: -16.9%
11,COc1cc(OC)c(OC)cc1/C=C/c1nc2cc3ccccc3cc2c(=O)n1-c1ccc(F)c(Cl)c1,inactive: -16.4%
12,CCc1c(C)nc(SCc2nc(-c3ccccc3)no2)[nH]c1=O,inactive: -2.94%
13,O=C(c1cc(-c2ccccc2O)on1)N1CCCCC1,inactive: -7.36%
14,CCN[C@H]1C[C@H](C)S(=O)(=O)c2sc(S(N)(=O)=O)cc21,inactive: -4.5%
15,O=C(c1ccc2c(c1)N(Cc1ccccc1F)C(=O)c1ccccc1S2(=O)=O)N1CCN(c2ccccc2F)CC1,inactive: -15.4%
16,COc1cc(S(N)(=O)=O)cc(C(=O)O)c1OC,inactive: -8.85%
17,CCN(CC)C(=O)c1sc2c(c1C)c(=O)n(CCc1ccccc1)c(=O)n2Cc1ccc(F)cc1Cl,inactive: -11.8%
18,CCOc1ccc(C(=O)Nc2ccc3nn(-c4ccc(OC)c(Cl)c4)nc3c2)cc1,inactive: -3.56%
19,CNC(=O)C1CCC(Cn2c(=O)c3sccc3n(CC(=O)NCc3ccc(OC)cc3)c2=O)CC1 (stereo not given),inactive: -32.3%
20,COc1ccccc1NC(=O)c1c(NC(=O)COc2ccccc2)sc2c1CCCCC2,inactive: -16%
21,Cc1ccc(OCC(=O)Nc2cccc(-c3nc4ccccc4o3)c2C)cc1C,inactive: -15.6%
22,O=C(Cn1c(=O)n(-c2cccc(Cl)c2)c(=O)c2sc3ccccc3c21)NC1CCCCC1,inactive: -18.4%
23,COc1ccc2cc(-c3nc(Cl)c4c5c(sc4n3)CC(C)CC5)c(=O)oc2c1 (stereo not given),inactive: 4.63%

row,Structure (SMILES),activation
1,Clc1ccc(CN2CCC(CNc3ncnc4onc(-c5ccc(Cl)cc5)c34)CC2)cc1,inactive: -1.73%
2,O=C(CSCc1ccc(F)cc1)N1CCN(c2ccc(Cl)cc2)CC1,inactive: -2.91%
3,CC(=O)SC[C@@H](Cc1ccccc1)C(=O)NCC(=O)OCc1ccccc1,inactive: -10.7%
4,Cc1cccc(NC(=O)CSc2nc3ccccc3nc2N2CCCCC2)c1C,inactive: 15.2%
5,COc1cc(NC(=O)C(Cc2ccccc2)NS(=O)(=O)c2cccc3nsnc23)cc(OC)c1 (stereo not given),inactive: -0.915%
6,CCOc1ccc(N(CC(=O)Nc2ccccc2CC)S(=O)(=O)c2c(C)noc2C)cc1,inactive: -12.7%
7,COc1ccc(NC(=O)c2c(NC(=O)c3ccncc3)sc3c2CCC(C(C)(C)C)C3)cc1 (stereo not given),inactive: -8.8%
8,COc1ccc(C(=O)NNc2ncnc3c2cnn3-c2ccc(C)c(Cl)c2)cc1,inactive: -4.8%
9,COc1cccc(Cn2c(=O)n(CCc3ccccc3)c(=O)c3c2c2cc(OC)ccc2n3C)c1,inactive: -6.5%
10,Cc1ccc(Cl)cc1NC(=O)C1CCN(S(=O)(=O)c2cccc3nonc23)CC1,inactive: -14.1%
11,Cc1cc(C)cc(NC(=O)c2cc(S(=O)(=O)N3CCC(C)CC3)cn2C)c1,inactive: -8.98%
12,CC(=O)c1cccc(NC(=O)CCc2c(C)nc3c(c(C)nn3-c3ccccc3)c2C)c1,inactive: -14.7%
13,CCCCNc1nc(Oc2ccc(=O)n(C)n2)nc(N2CCOCC2)n1,inactive: -8.69%
14,COc1ccc(Br)cc1CNC(=O)c1ccc2c(c1)nc1n2CCC(C)C1 (stereo not given),inactive: -15.3%
15,O=C(Cn1ccn(-c2ccc(F)c(F)c2)c(=O)c1=O)NCCc1ccccc1,inactive: -6.47%
16,CCOc1ccc(-c2cc3c(=O)n(CC(=O)Nc4cc(F)ccc4C)ccn3n2)cc1,inactive: -23.1%
17,O=C(CCC1N=C2c3ccccc3N=C(SCc3cccc(Cl)c3)N2C1=O)N1CCN(c2ccccc2)CC1 (stereo not given),inactive: -17%
18,Cc1cc(C)c2c(=O)cc(C(=O)Nc3c(C)n(C)n(-c4ccccc4)c3=O)oc2c1,inactive: -27.5%
19,COc1ccc(C(=O)c2c(N)c(-c3nc(-c4ccc(OC)cc4)cs3)c3ccccn23)cc1,inactive: -15.9%
20,Cc1cc(C)c(/C=C/c2onc(C)c2S(=O)(=O)N2CCC(C(=O)NCc3ccccc3Cl)CC2)c(C)c1,inactive: -4.9%
21,COc1cc2[nH]c(=O)n(CCC(=O)N3CCN(c4ccc(Cl)cc4)CC3)c(=O)c2cc1OC,inactive: -9.32%
22,CCn1nc(-c2ccccc2)c(-c2ccccc2)c(C(=O)Nc2ccccc2C#N)c1=O,inactive: -6.66%
23,C=CCc1ccccc1OCc1nc2ccccc2n1CC,inactive: -8%

row,Structure (SMILES),activation
1,CC(=O)N(O)CCCCCNC(=O)CCC(=O)N(O)CCCCCNC(=O)CCC(=O)N(O)CCCCCN,inactive: -3.89%
2,Cc1ccc2oc3c(c(=O)c2c1)C(c1ccc([N+](=O)[O-])cc1)N(CCCN1CCOCC1)C3=O (stereo not given),inactive: -7.47%
3,CCN(Cc1ccccc1)C(=O)Cn1c(=O)n(-c2cccc(C)c2)c(=O)c2c1c1cc(C)ccc1n2C,inactive: -7.02%
4,COc1ccc(S(=O)(=O)c2c(O)c3ccc(C(=O)NCc4ccc(Cl)cc4)cc3[nH]c2=O)cc1,inactive: -22.8%
5,CCOC(=O)C1CCN(C(=O)Cn2ncc3c4ccccc4n(Cc4ccc(F)cc4)c3c2=O)CC1,inactive: -10%
6,Cc1csc2nc(COc3ccc(NC(=O)COc4ccccc4)cc3)cc(=O)n12,inactive: 17.1%
7,Cc1cc(NC(=O)CSc2ncc(C(=O)Nc3ccc(Cl)cc3)c(=O)n2C)no1,inactive: -23%
8,O=C(CN1C(=O)c2cccnc2Oc2ccc(Cl)cc21)NCCc1ccccc1,inactive: 2.45%
9,O=C(O)Cc1cccc(-c2cc(CCCCCCc3ccc(O[C@H]4O[C@H](CO)[C@@H](O)[C@H](O)[C@@H]4O)c(-c4cccc(CC(=O)O)c4)c3)ccc2O[C@H]2O[C@H](CO)[C@@H](O)[C@H](O)[C@@H]2O)c1,inactive: -7.36% [at 0.46 µM]
10,CC(C)(C)C(=O)Cn1c(=O)n(-c2ccccc2)c(=O)c2c3c(sc21)CCC3,inactive: -10.6%
11,Cc1ccc(NC(=O)CN2C(=O)COc3ccc(S(=O)(=O)NC4CCCC4)cc32)cc1Cl,inactive: -43.9%
12,CCOc1ccc(C(=O)Nc2cccc(NC(=O)c3ccc(C(C)(C)C)cc3)c2)cc1Br,inactive: -13%
13,Cn1c2ccccc2c2cnn(CC(=O)N3CCN(c4cccc(C(F)(F)F)c4)CC3)c(=O)c21,inactive: -10.5%
14,Cc1cccc(N2CCN(S(=O)(=O)c3cc(Cl)ccc3Cl)CC2)c1C,inactive: -16.8%
15,CC(=O)c1cccc(NC(=O)C2CCCN(C(=O)c3cnn(-c4ccccc4)c3-n3cccc3)C2)c1 (stereo not given),inactive: -7.53%
16,Cc1ccc(CNC(=O)CN(c2cccc(C)c2C)S(=O)(=O)c2ccccc2)cc1,inactive: -34.4%
17,CCC(CC)C(=O)Nc1ccc2nc(SCC(=O)N3CCc4ccccc43)sc2c1,inactive: -0.783%
18,CCCCNc1ccc(-c2nc(-c3ccco3)no2)cc1[N+](=O)[O-],inactive: -5.37%
19,COc1ccc(-c2nc(SCC(=O)Nc3ccc4c(c3)OCCO4)c(-c3ccc(F)cc3)[nH]2)cc1OC,inactive: -10.2%
20,COc1ccc(CC(=O)NCc2ccc3c(c2)CCN3C(C)=O)cc1,inactive: -13.3%
21,O=C(c1ccc2c(c1)N(Cc1ccc(F)cc1)C(=O)c1ccccc1S2(=O)=O)N1CCN(Cc2ccccc2)CC1,inactive: -34.8%
22,Cc1ccc(-c2ccccc2C#N)cc1,inactive: -12.3%
23,CCc1ccccc1NC(=O)Nc1cc(C(=O)NCc2ccccc2OC)ccc1N1CCCC1,inactive: -10%

row,Structure (SMILES),activation
1,COc1ccc2c(c1)c(=O)c(S(=O)(=O)c1ccccc1)cn2CC(=O)Nc1ccc2c(c1)OCO2,inactive: -10.5%
2,CCCN(C(=O)Cn1ncc2c([nH]c3ccccc32)c1=O)c1ccc(F)cc1,inactive: 7.3%
3,CC(=O)c1cccc(NC(=O)CCCSc2nc(-c3ccco3)cc(C(F)(F)F)n2)c1,inactive: -20.1%
4,COc1ccc(CCNC(=O)CCn2c(=O)c3ccccc3n(CC(=O)Nc3cc(Cl)ccc3C)c2=O)cc1OC,inactive: -11.2%
5,CCOC(=O)C1CCCN(C(=O)c2ccc3c(c2)N(Cc2ccccc2F)C(=O)c2ccccc2S3=O)C1 (stereo not given),inactive: -9.04%
6,Cc1ccc(NC(=O)c2ccc(CNS(=O)(=O)c3ccc4c(c3)C(C)(C)C(=O)N4C)cc2)cc1,inactive: -31.8%
7,CN(C)CCNC(=O)C(=O)NCC(c1cccnc1)N1CCN(c2ccccc2)CC1 (stereo not given),inactive: -7.78%
8,COc1cccc(-c2nc(SCC(=O)NCC3CCCO3)c(-c3ccc(Cl)cc3)[nH]2)c1 (stereo not given),inactive: -13.5%
9,COc1ccc(NC(=O)CN2C(=O)C(c3ccc(C)cc3)=NC23CCCCCC3)cc1Cl,inactive: -0.207%
10,CCOC(=O)C(C)(C)Oc1ccc(Cl)cc1,inactive: -38.1%
11,CC(=O)N1CCc2cc(S(=O)(=O)NC(Cc3ccccc3)C(=O)Nc3ccc(C)cc3C)ccc21 (stereo not given),inactive: -6.32%
12,O=C(CSc1nc2ccsc2c(=O)n1Cc1ccccc1F)NCc1ccccc1Cl,inactive: 15.2%
13,Clc1cccc(-n2ncc3c(Nc4ccc5c(c4)OCCO5)ncnc32)c1,inactive: -17.4%
14,Cc1ccc(C)c(Cn2c(=O)n(-c3ccc(F)cc3)c(=O)c3sc4ccccc4c32)c1,inactive: -13.4%
15,COc1ccc(N2CCN(C(=O)Cn3c(-c4cccs4)cc4ccccc43)CC2)cc1,inactive: -5.19%
16,CCOC(=O)c1cnc2c(C)cc(C)cc2c1Nc1ccccc1OCC,inactive: -16.7%
17,COc1ccc(C(=O)Nc2ccc3oc(-c4cc(Cl)ccc4Cl)nc3c2)cc1Br,inactive: -7.6%
18,Cc1nn2c(-c3ccco3)ccnc2c1-c1ccc(Cl)cc1,inactive: -12.9%
19,Cc1ccc(C(=O)Nc2ccc3oc(-c4cc(Br)ccc4Cl)nc3c2)cc1,inactive: -15.8%
20,CCC(=O)N1CCCc2cc(S(=O)(=O)N3CCC(C(=O)Nc4cccc(Cl)c4)CC3)ccc21,inactive: -39.4%
21,COc1cc(OC)c(N(C)C(=O)CSc2c3c(nc4ccc(Cl)cc24)CCCC3)cc1Cl,inactive: 2.42%
